{"source": "paper PMC4336329", "about": "(PLoS ONE, 2015)", "note": "Hit rate of the full screen: of about 310,000 compounds, about 2,200 (0.71%) showed an effect of 50% or more. The effect is printed as a negative number. Some of the results follow."}
{"molecular_target": "human ether-à-go-go-related gene (hERG) potassium channel (human, UniProt Q12809)", "sequence (Q12809 whole entry, looked up)": "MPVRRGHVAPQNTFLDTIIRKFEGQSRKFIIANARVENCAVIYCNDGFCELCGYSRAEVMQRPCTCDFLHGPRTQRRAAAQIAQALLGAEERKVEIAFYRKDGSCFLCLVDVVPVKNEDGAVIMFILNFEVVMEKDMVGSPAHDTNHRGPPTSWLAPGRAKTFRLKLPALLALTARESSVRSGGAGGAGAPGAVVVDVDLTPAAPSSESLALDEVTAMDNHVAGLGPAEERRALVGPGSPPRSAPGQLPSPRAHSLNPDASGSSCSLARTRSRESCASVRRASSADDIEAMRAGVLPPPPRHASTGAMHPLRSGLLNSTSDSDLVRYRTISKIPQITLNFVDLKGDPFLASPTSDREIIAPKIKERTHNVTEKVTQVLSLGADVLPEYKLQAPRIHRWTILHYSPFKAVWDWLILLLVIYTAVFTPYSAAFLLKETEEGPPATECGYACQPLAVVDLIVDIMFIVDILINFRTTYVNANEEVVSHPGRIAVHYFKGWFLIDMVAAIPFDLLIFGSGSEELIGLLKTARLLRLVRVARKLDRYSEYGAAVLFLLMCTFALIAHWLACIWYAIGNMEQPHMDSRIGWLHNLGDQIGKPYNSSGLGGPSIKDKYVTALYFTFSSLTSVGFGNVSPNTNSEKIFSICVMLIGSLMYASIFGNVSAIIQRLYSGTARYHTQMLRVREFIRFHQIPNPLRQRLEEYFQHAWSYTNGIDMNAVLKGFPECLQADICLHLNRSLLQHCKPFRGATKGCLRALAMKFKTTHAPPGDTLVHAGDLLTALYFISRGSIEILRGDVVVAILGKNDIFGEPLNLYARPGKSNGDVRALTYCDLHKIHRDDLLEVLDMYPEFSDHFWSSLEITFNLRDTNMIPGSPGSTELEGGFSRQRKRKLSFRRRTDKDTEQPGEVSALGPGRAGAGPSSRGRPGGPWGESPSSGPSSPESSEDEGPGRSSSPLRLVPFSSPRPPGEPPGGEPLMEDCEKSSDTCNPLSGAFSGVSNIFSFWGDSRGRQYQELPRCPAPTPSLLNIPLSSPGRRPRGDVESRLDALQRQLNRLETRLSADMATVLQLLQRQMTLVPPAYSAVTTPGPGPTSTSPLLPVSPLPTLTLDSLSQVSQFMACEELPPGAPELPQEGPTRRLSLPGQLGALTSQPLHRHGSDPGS", "assay": "primary screen, population patch clamp on CHO cells stably expressing hERG", "units": {"hERG current change (%, negative = inhibition) at 1uM": "%"}}
{"smiles": "COc1ccc(S(=O)(=O)N(C)CC(=O)N2CCCC2)cc1", "hERG current change (%, negative = inhibition) at 1uM": 17.8}
{"smiles": "Cc1ccccc1CSc1nnc(C)c(=O)[nH]1", "hERG current change (%, negative = inhibition) at 1uM": 18.9}
{"smiles": "C/C(=N\\NC(=O)c1nnn(-c2nonc2N)c1CSc1ccccc1)c1ccc2c(c1)OCO2", "hERG current change (%, negative = inhibition) at 1uM": 16.7}
{"smiles": "O=C(C1CC(=O)N(c2ccc3c(c2)OCCO3)C1)N1CCN(c2ccccc2)CC1", "note": "(stereo not shown)", "hERG current change (%, negative = inhibition) at 1uM": 6.08}
{"smiles": "COc1ccc(C2C(C(=O)c3ccc(C)o3)=C(O)C(=O)N2c2cc(C)on2)cc1OC", "note": "(stereo not shown)", "hERG current change (%, negative = inhibition) at 1uM": 2.92}
{"smiles": "O=C1CC(c2ccc(F)cc2)C2=C(CCCC2=O)N1", "note": "(stereo not shown)", "hERG current change (%, negative = inhibition) at 1uM": 1.55}
{"smiles": "CC(=O)Nc1cc2nc(C)n(Cc3ccccc3[N+](=O)[O-])c2nc1C", "hERG current change (%, negative = inhibition) at 1uM": 14}
{"smiles": "OC(CN1CCN(c2ccccc2)CC1)Cn1c2ccccc2c2ccccc21", "note": "(stereo not shown)", "hERG current change (%, negative = inhibition) at 1uM": 5.81}
{"smiles": "CC1=NN(C(=O)COc2ccccc2)C(O)(c2ccccc2)C1", "note": "(stereo not shown)", "hERG current change (%, negative = inhibition) at 1uM": 9.77}
{"smiles": "CCOC(=O)C(CCSC)NC(=O)CN.Cl", "note": "(stereo not shown)", "hERG current change (%, negative = inhibition) at 1uM": -11.6}
{"smiles": "CCS(=O)(=O)N1CCN(S(=O)(=O)c2ccccc2[N+](=O)[O-])CC1", "hERG current change (%, negative = inhibition) at 1uM": 3.65}
{"smiles": "C/C(=N\\NC(=O)c1cccc(F)c1)c1cccc(NC(=O)c2ccc(F)cc2)c1", "hERG current change (%, negative = inhibition) at 1uM": 9.88}
{"smiles": "O=C1CN(C(=O)c2ccc(F)cc2)c2ccccc2N1", "hERG current change (%, negative = inhibition) at 1uM": 1.91}
{"smiles": "COc1ccccc1N1C(=O)[C@@H]2[C@H](C1=O)[C@H](C(=O)c1ccc(OC(C)=O)cc1)N1N=CC=C[C@@H]21", "hERG current change (%, negative = inhibition) at 1uM": 15.9}
{"smiles": "O=C(NCCS(=O)(=O)NCc1ccc2c(c1)OCO2)c1ccccc1", "hERG current change (%, negative = inhibition) at 1uM": 3.6}
{"smiles": "CC1CC1c1ccc(/C=C(\\C#N)C(=O)Nc2cccc(Cl)c2Cl)o1", "note": "(stereo not shown)", "hERG current change (%, negative = inhibition) at 1uM": 5.08}
{"smiles": "CCOC(=O)N1CCN(C(=O)CC(C(=O)N2CCc3ccccc32)n2ccnc2)CC1", "note": "(stereo not shown)", "hERG current change (%, negative = inhibition) at 1uM": -19.2}
{"smiles": "Cc1cc(N2C(=O)C(O)=C(C(=O)c3ccco3)C2c2cccc(Oc3ccccc3)c2)no1", "note": "(stereo not shown)", "hERG current change (%, negative = inhibition) at 1uM": 13.7}
{"smiles": "Cc1cc(O)c(-c2cc(C(=O)NCCc3ccc(S(N)(=O)=O)cc3)[nH]n2)cc1C", "hERG current change (%, negative = inhibition) at 1uM": 15.9}
{"smiles": "CN(c1ccc(F)cc1)S(=O)(=O)c1ccc(Cl)c(C(=O)Nc2ccncc2)c1", "hERG current change (%, negative = inhibition) at 1uM": 10.5}
{"smiles": "O=C(Nc1ccc(Cl)cc1)c1cnc(-c2ccccc2)nc1-c1ccccc1", "hERG current change (%, negative = inhibition) at 1uM": 2.34}
{"smiles": "CC(=C\\c1ccco1)/C=C(\\C#N)C(=O)NCCc1c[nH]c2ccccc12", "hERG current change (%, negative = inhibition) at 1uM": 2.16}
{"smiles": "O=C(Nc1cccc(-c2nnc(-c3ccccc3)o2)c1)C1CCCCC1", "hERG current change (%, negative = inhibition) at 1uM": 13.3}
{"smiles": "S=C(NCc1ccccn1)Nc1ccc(Cl)cc1", "hERG current change (%, negative = inhibition) at 1uM": 11.8}
{"smiles": "CCOc1ccc(C(O)c2nccn2Cc2ccccc2)cc1", "note": "(stereo not shown)", "hERG current change (%, negative = inhibition) at 1uM": 11.3}
{"smiles": "Cc1csc(NC(=O)COc2ccc3c(C)cc(=O)oc3c2)n1", "hERG current change (%, negative = inhibition) at 1uM": 6}
{"smiles": "COC(=O)c1sc2ccccc2c1NC(=O)c1coc2ccccc2c1=O", "hERG current change (%, negative = inhibition) at 1uM": 5.66}
{"smiles": "CC(=O)Nc1ccc(S(=O)(=O)N(C)CC(=O)Nc2ccccc2N2CCCC2)cc1", "hERG current change (%, negative = inhibition) at 1uM": 14.9}
{"smiles": "Cn1c(SCc2n[nH]c(=S)o2)nnc1-c1ccccc1", "hERG current change (%, negative = inhibition) at 1uM": 10.8}
{"smiles": "CN(Cc1ccco1)S(=O)(=O)c1ccc(CN2C(=O)c3cccnc3C2=O)s1", "hERG current change (%, negative = inhibition) at 1uM": 10.9}
{"smiles": "O=C(O)C1CC(=O)N(c2ccc(OCc3c(F)cccc3Cl)cc2)C1", "note": "(stereo not shown)", "hERG current change (%, negative = inhibition) at 1uM": 12.5}
{"smiles": "CC(C)N(Cc1nc(-c2ccccc2)no1)S(=O)(=O)c1ccccc1", "hERG current change (%, negative = inhibition) at 1uM": 5.31}
{"smiles": "O=C(CNc1ccc(F)cc1)N/N=C1\\CCc2ccccc21", "hERG current change (%, negative = inhibition) at 1uM": 3.41}
{"smiles": "Cc1cc(C)c(NS(=O)(=O)c2ccc(NC(=O)/C=C/C(=O)O)cc2)c(C)c1", "hERG current change (%, negative = inhibition) at 1uM": 9.67}
{"smiles": "CCc1ccc(-c2nc(-c3ccncc3)no2)cc1", "hERG current change (%, negative = inhibition) at 1uM": 5.1}
{"smiles": "Cc1cc2c(cc1C)[n+](C)cn2CC(O)COCC1CC=CCC1.[I-]", "note": "(stereo not shown)", "hERG current change (%, negative = inhibition) at 1uM": 11}
{"smiles": "CC(C)C(=O)NC(NC1CCS(=O)(=O)C1)C(Cl)(Cl)Cl", "note": "(stereo not shown)", "hERG current change (%, negative = inhibition) at 1uM": 5.34}
{"smiles": "O=C1c2ccccc2C(=O)N1CC1=NCCc2ccccc21", "hERG current change (%, negative = inhibition) at 1uM": 13}
{"smiles": "O=C(CCS(=O)(=O)c1cccc2nsnc12)N1CCN(c2ccccc2F)CC1", "hERG current change (%, negative = inhibition) at 1uM": 10.8}
{"smiles": "O=C(NNC(=S)NCc1ccccc1)c1cccnc1", "hERG current change (%, negative = inhibition) at 1uM": 8.83}
{"smiles": "COc1ccccc1C(=O)Nc1nnc(SCC(=O)Nc2ccc3c(c2)oc2ccccc23)s1", "hERG current change (%, negative = inhibition) at 1uM": 11.9}
{"smiles": "COc1ccc(/C=N\\NC(=O)c2nn(C)cc2Cl)cc1CN1CCOCC1", "hERG current change (%, negative = inhibition) at 1uM": 2.02}
{"smiles": "O=C(NCc1ccccn1)C1CN(S(=O)(=O)c2ccccc2)CCN1S(=O)(=O)c1ccccc1", "note": "(stereo not shown)", "hERG current change (%, negative = inhibition) at 1uM": 11.9}
